# PubChem BioAssay AID686970 (National Center for Advancing Translational Sciences (NCATS), 2013)
# The campaign covered roughly 360,000 compounds. About 6,000 (1.7%) were called active. This list was built around the results that the source calls inconclusive (neither active nor inactive); the mix of calls is not that of the screen. The call rests on the fitted dose curve; in most records, active means well fitted cell-killing curve with a large enough effect; inconclusive means small, poorly fitted or top-dose-only effect, or effect the other way; inactive means flat fitted curve, though single readings scatter. No potency is given beside an inconclusive call; the fits are too rough.
# Assay: qHTS for induction of synthetic lethality in tumor cells producing 2HG: qHTS for the HT-1080-NT fibrosarcoma cell line;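 further: NT is the 2HG producing partner of a matched IDH1 knockdown line; nearly all actives have a fitted effect of over 55% in size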;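 on activity, negative = less viability: 0% = DMSO-treated cells and -100% = media-only wells without cells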
# Details: HT-1080-NT fibrosarcoma viability, CellTiter-Glo ATP luminescence, 48 h; activity, negative = less viability: at 46.1 µM (top of the series) unless noted
# How it was run: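 Compounds were tested in concentration-response format on HT-1080-NT cells for 48 hours at 37 degrees C. Cell viability came from CellTiter-Glo luminescence; curves were classified by r2, response magnitude and activity.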
# Potency means the concentration at half of the fitted maximal effect; tags describe the fitted curve by direction and shape.
Structure (SMILES),Potency,"activity, negative = less viability"
FC(F)(F)c1cccc(-c2cc(C3CCNCC3)[nH]n2)c1,active: 16.4 µM,
O=C(NCC(c1cccs1)N1CCc2ccccc21)c1ccccc1 (stereo not given),"inconclusive [cytotoxic, single point]",
Oc1ccc(N2CCN(c3ncnc4sc(-c5ccccc5)cc34)CC2)cc1,active: 13 µM,
O=C1c2ccccc2C(=O)c2c(O)c(O)cc(O)c21,active: 9.2 µM,
Cc1ccc(-c2cc(C(F)(F)F)nn2-c2ccc(S(N)(=O)=O)cc2)cc1,"inconclusive [cytotoxic, partial curve, poor fit]",
COc1ccc(NC(=O)C(=O)NCCC2CCCCN2S(=O)(=O)c2cccs2)cc1 (stereo not given),"inconclusive [cytotoxic, full curve]",
O=C1N[C@@H](Cc2ccccc2)COC(=O)[C@@H](Cc2ccc(F)cc2)CC/C=C/C[C@H]1CC(=O)N(CCO)Cc1ccccc1,"inconclusive [cytotoxic, single point]",
CC(C)(C)OC(=O)NCCCCCNC(=O)c1[nH]cnc1C(=O)N[C@@H](Cc1ccccc1)C(=O)OC(C)(C)C,,inactive: -2.38%
CCOc1ccc(NC(=O)Cn2c(=O)n(CCCC(=O)NC3CCN(Cc4ccccc4)CC3)c(=O)c3ccccc32)cc1,,inactive: 0.653%
COc1ccc(CN2C[C@H]3CCCN3c3cc(Br)ccc3S2(=O)=O)cc1,"inconclusive [cytotoxic, full curve]",
COC(=O)C1=C(C)N(c2ccc(OC)cc2)C(C)=C(C(=O)OC)C1c1ccccc1,"inconclusive [cytotoxic, single point]",
OC1CCCN(CC(O)COC(c2ccc(F)cc2)c2ccc(F)cc2)C1 (stereo not given),"inconclusive [cytotoxic, partial curve]",
Cc1cc(C)c(C(=O)COc2cccnc2[N+](=O)[O-])cc1C,"inconclusive [cytotoxic, single point]",
COc1cc(C)c(S(=O)(=O)NCc2cccnc2)cc1C,,inactive: 0.454%
Cc1ccc(-c2oc3ccccc3c(=O)c2O)cc1,"inconclusive [cytotoxic, single point]",
O=C(CSc1ncnc2nc[nH]c12)N1CCN(c2ccc(Cl)cc2)CC1,"inconclusive [cytotoxic, single point]",
N#Cc1c(N)n(C2OC(CO)C(O)C2O)c2ncnc(N)c12 (stereo not given),active: 1.3 µM,
CC[C@]12c3[nH]c4cc(CCC(=O)N(C)C)ccc4c3CCN1C(=O)[C@@H](CC(=O)NCCc1ccccn1)C[C@@H]2C(=O)N1CCN(C(=O)C2CC2)CC1,,inactive: 4.87%
C[C@@H](NC(=O)c1[nH]cnc1C(=O)Nc1ccc(Cl)cc1)c1ccccc1,"inconclusive [cytotoxic, single point]",
COc1ccc(CNS(=O)(=O)c2cc(-c3cc(C)no3)ccc2C(C)C)cc1,"inconclusive [cytotoxic, full curve]",
CC[C@H]1OC(=O)[C@H](C)[C@@H](O[C@H]2C[C@@](C)(OC)[C@@H](O)[C@H](C)O2)[C@H](C)[C@@H](O[C@@H]2O[C@H](C)C[C@H](N(C)C)[C@H]2O)[C@](C)(O)C[C@@H](C)CN(C)[C@H](C)[C@@H](O)[C@]1(C)O,"inconclusive [cytotoxic, full curve]",
COc1cccc(OC)c1OCc1cc(C2C3CCCC=C3C(C#N)=C(N)C2(C#N)C#N)c(C)cc1C (stereo not given),"inconclusive [cytotoxic, single point]",
CSc1ccc(CN2CCc3c([nH]c4ccccc34)C2)cc1,,inactive: -22.5%
CC(=NO)C1CCC2C3CCC4CC(=NO)CCC4(C)C3C(C)(O)CC12C (stereo not given),,inactive: 8.64%

Structure (SMILES),Potency,"activity, negative = less viability"
CN1CCC(Oc2ccccc2Sc2ccccc2)CC1,,inconclusive: -31.5% [cytotoxic]
CCOC(=O)[C@]12CCC=C1N(Cc1cccc3ccccc13)C(=O)[C@H](CC(=O)NCc1cccs1)C2,"inconclusive [cytotoxic, single point]",
C/C(=N\Nc1nc(-c2cc(C)ccc2C)cs1)c1cc2ccccc2oc1=O,,inactive: 8.98%
COc1cc(OC)c(OC)cc1/C=N/NC(=O)CCc1c(C)n[nH]c1C,,inactive: 10.7%
Cc1cccc(C)c1NC(=O)c1cc2c(=O)c3ccccc3oc2nc1C(F)(F)F,,inactive: -12.2%
COc1ccc(Cl)cc1C(=O)NNC(=O)CNC(=O)c1ccc(C)s1,,inactive: 21.7%
N#Cc1c(N)n(-c2ccccc2N)c2nc3ccccc3nc12,,inactive: -20.6%
COc1ccc(NC(=S)NC(NC(=O)CCl)C(Cl)(Cl)Cl)c([N+](=O)[O-])c1 (stereo not given),,inactive: -20.2%
O=C(NCCC1=CCCCC1)c1[nH]c(C(F)(F)F)nc1-c1ccccc1,"inconclusive [cytotoxic, single point]",
Cc1ccc(S(=O)(=O)NNc2ccccc2)cc1,,inactive: -18%
CNc1ccc(/C=C/C(=O)c2ccc(C)cc2)cc1[N+](=O)[O-],"inconclusive [cytotoxic, single point]",
CC(=O)Nc1ccc(NC(=S)NC(=O)c2ccc(-c3ccccc3)cc2)cc1,,inconclusive: -4.17% [cytotoxic]
COc1ccc(OC)c(NC(=O)CC2C(=O)NCCN2C(=O)Nc2cccc(Cl)c2)c1 (stereo not given),,inconclusive: -31.1% [cytotoxic]
Cc1cccc(CSc2nc3c(c(-c4cccs4)c2C#N)CN(C)CC3)c1,,inactive: 4.7%
CC(C)c1nc(SCC(=O)N2c3ccccc3CC2C)c2ccccc2n1 (stereo not given),"inconclusive [cytotoxic, single point]",
N#Cc1c(N(CCO)CCO)nc(N)c2c(N)nc3c(c12)CC(=O)N3Cc1cccs1,"inconclusive [rising, single point]",
CCN(CC)CCC(=O)N1c2ccccc2Sc2ccc(Cl)cc21,"inconclusive [cytotoxic, partial curve]",
CC(=O)n1c2c(c3ccccc31)OC(N)=C(C#N)C2c1cccc(Cl)c1Cl (stereo not given),"inconclusive [cytotoxic, single point]",
O=C(COc1ccccc1)N(Cc1ccccc1)c1nc(-c2ccccc2)cs1,"inconclusive [cytotoxic, single point]",
CCOC(=O)CN1CC23C=CC(O2)C(C(=O)NCc2ccccc2OC)C3C1=O (stereo not given),,inactive: 2.66%
CCCCC(=O)N(C)c1c(C)nc2ccc(C(=O)N3CCCCC3)cn12,,inactive: 5.16%
CC(=O)Nc1ccc(-c2ccnc3c2CC(C(=O)Nc2cccc(OC(F)(F)F)c2)O3)cc1 (stereo not given),"inconclusive [cytotoxic, partial curve]",
CC(C)c1ccc(N=C2N=C(N)c3ccccc32)cc1,active: 18.4 µM,
Cc1ccc(NC(=O)Nc2ccc(F)cc2)cc1Cl,,inactive: 17.6%

Structure (SMILES),Potency,"activity, negative = less viability"
Cn1cnc([N+](=O)[O-])c1S(=O)(=O)Oc1cccc2ccccc12,active: 1.16 µM,
COc1cc(SC)ccc1C(=O)NC1CCCc2ccccc21 (stereo not given),"inconclusive [cytotoxic, single point]",
O=C(NCc1nnc(SCc2ccccc2)n1-c1ccc(F)cc1)C12CC3CC(CC(C3)C1)C2,"inconclusive [cytotoxic, single point]",
CCCCn1nnnc1C(c1cc2ccccc2o1)N(CCN(C)C)Cc1ccccc1 (stereo not given),active: 18.4 µM,
CCCc1cc(C(=O)NC(C)C2CCCO2)cs1 (stereo not given),"inconclusive [rising, single point]",
COc1ccc(-n2nc(C(=O)NCC(=O)Nc3cc(OC)c(OC)c(OC)c3)c3ccccc3c2=O)cc1OC,"inconclusive [cytotoxic, full curve]",
CCN(CC)c1ccc(S(=O)(=O)Nc2cc(Cl)ccc2Cl)cc1NC(=S)NC(=O)C1CCCC1,"inconclusive [cytotoxic, single point]",
CC(C)(C)c1ccc(C(=O)CC(Sc2ccc(Cl)cc2)C(=O)O)cc1 (stereo not given),active: 11.6 µM,
O=C(Nc1ccc(C(=O)N2CCCC2)cc1)c1cc(F)c(F)cc1Cl,,inactive: -1.32%
O=C(NC(=S)NNC(=O)c1ccccc1O)c1ccc(F)cc1,"inconclusive [cytotoxic, partial curve]",
O=C(c1sc2ccccc2c1Cl)N(Cc1ccco1)C1CCS(=O)(=O)C1 (stereo not given),,inactive: 2.64%
Cc1cccnc1C(NC(=O)C1CCN(CCOc2ccc(F)cc2)CC1)c1ccc(Cl)cc1 (stereo not given),"inconclusive [cytotoxic, single point]",
Cc1ccc(NC(=O)CNCC2CCCCC2)cc1S(=O)(=O)N(C)C,,inactive: 8.55%
Nc1cc(C(=O)O)c(N)c2c1C(=O)c1ccccc1C2=O,"inconclusive [cytotoxic, single point]",
CN(C)c1cccc2c(S(=O)(=O)NC(=O)[C@H]3O[C@@H](n4cnc5c(N)ncnc54)[C@H](O)[C@@H]3O)cccc12,,inactive: 3.63%
C/C=C/c1ccc2c(c1)O[C@H](CN(C)C(=O)NC1CCCC1)[C@H](C)CN([C@H](C)CO)S2(=O)=O,,inactive: -1.56%
COC(=O)Nc1ccc(OCc2ccccc2)cc1,,inactive: -10.2%
Cc1cccc(NC(=S)NC2CC3CCCC(C2)N3Cc2cccs2)c1 (stereo not given),"inconclusive [cytotoxic, single point]",
CCc1cc(C(=O)N/N=C/c2ccc(O)cc2)c2ccccc2n1,"inconclusive [cytotoxic, partial curve, poor fit]",
NNC(=O)c1oc2nc(-c3ccco3)cc(-c3ccco3)c2c1N,,inactive: -15.7%
CN(C)c1cccc(F)c1C(=O)NC(=O)Nc1ccc(Cl)cc1,"inconclusive [cytotoxic, single point]",
CCOC(=O)c1ccc(-c2csc(NC(=O)CN3CCC(C)CC3)n2)cc1,active: 25.9 µM,
